In US20230381229A1 (ALPINE IMMUNE SCIENCES, INC., published 2023):

Target: PD-1 (human)
Assay: cell-based or functional assay

Row | Binder | IFN gamma levels pg/ml (MLR)
1 | PD-L2 IgV-Fc I13V, H15Q, T47A, Q82R, V89D (SEQ 725) (Fc fusion) LFTVTVPKELYIVEQGSNVTLECDFDTGSHVNLGAITASLQKVENDTSPHRERATLLEEQLPLGKASFHIPQVQVRDEGQYRCIIIYGDAWDYKYLTLKVKAAAA[sequence of human IgG1 Fc with C220S R292C N297G V302C (EU numbers) not given] | 1740 pg/mL
2 | PD-L2 IgV-Fc I13V, H15Q, T47A, E58G, S67L, Q82R, V89D (Fc fusion) LFTVTVPKELYIVEQGSNVTLECNFDTGSHVNLGAITASLQKVENDASPHRERATLLGEQLPLGKALFHIPQVQVRDEGQYRCIIIYGDAWDYKYLTLKVKAAAA[sequence of human IgG1 Fc with C220S R292C N297G V302C (EU numbers) not given] | 836 pg/mL
